{"source": "the supplement of paper PMC10126150", "note": "Sequences with one replicate were seen in a single cluster, so their values are uncertain.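 Note: ATP exposure 15 min at 22 °C before imaging.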"}
{"test_system": "ATP", "experiment": "switch fluorescence ratio, 500 uM ATP over buffer (Cy3 cluster intensity, sum of 5 cycles each) (fold (ratio)); higher = stronger signal-on switching upon ATP binding; sequences stand for … in TCGTCGGCAGCGTCAGATGTGTATAAGAGACAGTTTTTTTTTTTTTTTTTTTTTTTTT…TC", "details": "aptamer strand: ATP DNA aptamer (quencher-CACCTGGGGGAGTATTGCGGAGGAAGG + anchor), 100 nM annealed; ATP concentration: 500 uM; one replicate", "in_short": "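Values give the fluorescence ratio for each switch-domain sequence, averaged from per-cluster ratios of summed target-cycle to summed buffer-cycle Cy3 intensity. The Cy3-labelled switching-strand clusters sat on a modified Illumina MiSeq flow-cell, were annealed to 100 nM quencher-labelled ATP aptamer, and were imaged in selection buffer, then after 15 min with 500 uM ATP at 22 °C. Five cycles ran with NaOH stripping and re-annealing between them, and clusters outside 100-1000 RFU were excluded.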"}
{"sequence": "GGAAGGTAGG", "switch fluorescence ratio": 0.977}
{"sequence": "GGAAGTATGG", "switch fluorescence ratio": 1.01}
{"sequence": "GGAAGTCAGT", "switch fluorescence ratio": 1.02}
{"sequence": "GGAAGTGAG", "switch fluorescence ratio": 0.985}
{"sequence": "GGAAGTGGAC", "switch fluorescence ratio": 1.01}
{"sequence": "GGAAGTTTAT", "switch fluorescence ratio": 0.99}
{"sequence": "GGAATACGGT", "switch fluorescence ratio": 1.15}
{"sequence": "GGAATACTGG", "switch fluorescence ratio": 1.21}
{"sequence": "GGAATAGGAT", "switch fluorescence ratio": 0.98}
{"sequence": "GGAATCAGAG", "switch fluorescence ratio": 0.999}
{"sequence": "GGAATCAGTT", "switch fluorescence ratio": 0.997}
{"sequence": "GGAATCCAA", "switch fluorescence ratio": 0.997}
{"sequence": "GGAATCCATC", "switch fluorescence ratio": 1.06}
{"sequence": "GGAATGGACG", "switch fluorescence ratio": 1.01}
{"sequence": "GGAATGGATC", "switch fluorescence ratio": 0.983}
{"sequence": "GGAATGGCCT", "switch fluorescence ratio": 1.07}
{"sequence": "GGAATTAGGA", "switch fluorescence ratio": 1.02}
{"sequence": "GGACAACATT", "switch fluorescence ratio": 0.988}
{"sequence": "GGACACAGAG", "switch fluorescence ratio": 1.02}
{"sequence": "GGACACGCGG", "switch fluorescence ratio": 1.05}
{"sequence": "GGACAGCAGA", "switch fluorescence ratio": 1.01}
{"sequence": "GGACATATAT", "switch fluorescence ratio": 0.988}
{"sequence": "GGACATCCGT", "switch fluorescence ratio": 1.03}
{"sequence": "GGACATTTCC", "switch fluorescence ratio": 1.12}
{"sequence": "GGACCAGCAT", "switch fluorescence ratio": 1.05}
{"sequence": "GGACCCCAGC", "switch fluorescence ratio": 1.21}
{"sequence": "GGACCGCGGA", "switch fluorescence ratio": 1.02}
{"sequence": "GGACCTCGCA", "switch fluorescence ratio": 1.44}
{"sequence": "GGACCTCGT", "switch fluorescence ratio": 0.954}
{"sequence": "GGACCTGAGG", "switch fluorescence ratio": 1.08}
{"sequence": "GGACGAACGC", "switch fluorescence ratio": 1.9}
{"sequence": "GGACGAATGC", "switch fluorescence ratio": 1.43}
{"sequence": "GGACGGAGTG", "switch fluorescence ratio": 0.952}
{"sequence": "GGACGGGTCC", "switch fluorescence ratio": 1.03}
{"sequence": "GGACTAAGCT", "switch fluorescence ratio": 0.999}
{"sequence": "GGACTAATGG", "switch fluorescence ratio": 1.18}
{"sequence": "GGACTAGGGC", "switch fluorescence ratio": 1.03}
{"sequence": "GGACTAGTCG", "switch fluorescence ratio": 0.955}
{"sequence": "GGACTATACG", "switch fluorescence ratio": 1.06}
{"sequence": "GGACTATTAT", "switch fluorescence ratio": 1.04}
{"sequence": "GGACTCATCA", "switch fluorescence ratio": 1.04}
{"sequence": "GGACTCATGC", "switch fluorescence ratio": 1.09}
{"sequence": "GGACTCCCG", "switch fluorescence ratio": 1.01}
{"sequence": "GGACTCGTCG", "switch fluorescence ratio": 0.96}
{"sequence": "GGACTGAGTA", "switch fluorescence ratio": 0.966}
{"sequence": "GGACTGTCTG", "switch fluorescence ratio": 0.949}
{"sequence": "GGACTTGGCC", "switch fluorescence ratio": 0.999}
{"sequence": "GGACTTTAAA", "switch fluorescence ratio": 1.01}
{"sequence": "GGACTTTTTC", "switch fluorescence ratio": 0.975}
{"sequence": "GGAGAAATAA", "switch fluorescence ratio": 0.987}
{"sequence": "GGAGACATTT", "switch fluorescence ratio": 1.02}
{"sequence": "GGAGACCGAA", "switch fluorescence ratio": 1.04}
{"sequence": "GGAGAGGCTT", "switch fluorescence ratio": 0.963}
{"sequence": "GGAGATCATG", "switch fluorescence ratio": 1.01}
{"sequence": "GGAGATGATT", "switch fluorescence ratio": 1.01}
{"sequence": "GGAGCAAAAA", "switch fluorescence ratio": 1.17}
{"sequence": "GGAGCAGGTA", "switch fluorescence ratio": 1.05}
{"sequence": "GGAGCCTCTT", "switch fluorescence ratio": 1.02}
{"sequence": "GGAGCGGCTG", "switch fluorescence ratio": 1.01}
{"sequence": "GGAGGATTTG", "switch fluorescence ratio": 0.969}
{"sequence": "GGAGGCAGAG", "switch fluorescence ratio": 0.97}
{"sequence": "GGAGGCCGG", "switch fluorescence ratio": 1.09}
{"sequence": "GGAGGCCTAG", "switch fluorescence ratio": 0.985}
{"sequence": "GGAGGGGCGC", "switch fluorescence ratio": 1.05}
{"sequence": "GGAGGGGTAC", "switch fluorescence ratio": 1.13}
{"sequence": "GGAGGGGTAT", "switch fluorescence ratio": 1.03}
{"sequence": "GGAGGGTTT", "switch fluorescence ratio": 1.22}
{"sequence": "GGAGGTTAT", "switch fluorescence ratio": 0.97}
{"sequence": "GGAGTAAAGC", "switch fluorescence ratio": 1.09}
{"sequence": "GGAGTACTTC", "switch fluorescence ratio": 1.03}
{"sequence": "GGAGTCAACC", "switch fluorescence ratio": 0.99}
{"sequence": "GGAGTCCAGA", "switch fluorescence ratio": 0.998}
{"sequence": "GGAGTGCAAG", "switch fluorescence ratio": 1.01}
{"sequence": "GGAGTGCCAT", "switch fluorescence ratio": 1.01}
{"sequence": "GGAGTGCCCT", "switch fluorescence ratio": 0.998}
{"sequence": "GGAGTGTTGC", "switch fluorescence ratio": 1.01}
{"sequence": "GGAGTTGAA", "switch fluorescence ratio": 0.958}
{"sequence": "GGAGTTTGCA", "switch fluorescence ratio": 1.02}
{"sequence": "GGATACGCAG", "switch fluorescence ratio": 1.05}
{"sequence": "GGATAGCTAG", "switch fluorescence ratio": 0.991}
{"sequence": "GGATATAACT", "switch fluorescence ratio": 1.02}
{"sequence": "GGATATGCAT", "switch fluorescence ratio": 1.02}
{"sequence": "GGATATGTAC", "switch fluorescence ratio": 1.1}
{"sequence": "GGATATGTCG", "switch fluorescence ratio": 1}
{"sequence": "GGATATTAAT", "switch fluorescence ratio": 1.03}
{"sequence": "GGATATTGA", "switch fluorescence ratio": 1.03}
{"sequence": "GGATCAAATG", "switch fluorescence ratio": 1.02}
{"sequence": "GGATCCCACC", "switch fluorescence ratio": 1.12}
{"sequence": "GGATCCGACG", "switch fluorescence ratio": 1.08}
{"sequence": "GGATCCTGC", "switch fluorescence ratio": 0.962}
{"sequence": "GGATCGAACA", "switch fluorescence ratio": 0.976}
{"sequence": "GGATCGGCGC", "switch fluorescence ratio": 0.942}
{"sequence": "GGATGATGGC", "switch fluorescence ratio": 0.893}
{"sequence": "GGATGCCGTG", "switch fluorescence ratio": 1}
{"sequence": "GGATGGGGG", "switch fluorescence ratio": 1}
{"sequence": "GGATGGTCCG", "switch fluorescence ratio": 0.995}
{"sequence": "GGATGTAGA", "switch fluorescence ratio": 1.02}
{"sequence": "GGATTAAAGA", "switch fluorescence ratio": 1.02}
{"sequence": "GGATTAATA", "switch fluorescence ratio": 1}
{"sequence": "GGATTCAAGA", "switch fluorescence ratio": 0.93}
